# Assay results reported in a collection of fitness landscapes (doi:10.1016/j.celrep.2020.107928).
# Whole data set: some 81,000 sequences, median “one-hybrid fitness for binding parS DNA” near -0.17, cut for the highest 2% near 0.51. The list shows a part of the results.
# B1: Caulobacter ParB omega fusion; a variant is named by its letters at X, in order, B8GW30 (parent)
# chain: MESVVVGEPGMSEGRRGLGRGLSALLGEVDAAPAQAPGEQLGGSREAPIEILQRNPDQPRRTFREEDLEDLSNSIREKGVLQPILVRPSPDTAGEYQIVAGERAWRAAQRAGLKTVPIMVRELDDLAVLEIGIIENVQRADLNVLEEALSYKVLMEKFERTQENIAQTIGKSXSHVANXMRLLXLPDEVQSYLVSGELTAXHARAIAAAADPVALAKQIIEGGLSVRETEALARKAPNLSAGKSKGGRPPRVKDTDTQALESDLSSVLGLDVSIDHRGSTGTLTITYATLEQLDDLCNRLTRGI
# Variants of: B1
# Assay: one-hybrid fitness for binding parS DNA (scaled: cognate 1, non-cognate 0); higher = stronger binding
# Details: with parS DNA site
# Summary of the method: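 Values were rescaled so that cognate is 1 and non-cognate is 0. Each is a fitness, the log change in a variant's read ratio to wild type from Illumina reads of plasmids before and after selection, with three replicate libraries pooled and variants under 10 reads dropped. Selection of the Caulobacter ParB libraries, four specificity codons randomised, used E. coli USO with a HIS3 reporter, site 19 bp from the promoter, on M9-minus-histidine with 0.1 mM IPTG and 5 mM 3-AT for 48 hours at 37°C.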
row,Variant,one-hybrid fitness for binding parS DNA
1,PVCI,≤ 0.2
2,PNTL,≤ 0.2
3,RPTE,≤ 0.2
4,KKTA,≤ 0.2
5,RNPG,0.433
6,LPAH,≤ 0.2
7,CRWC,≤ 0.2
8,ASAH,≤ 0.2
9,HTAT,≤ 0.2
10,KMRS,≤ 0.2
11,DHLG,≤ 0.2
12,QQKI,≤ 0.2
13,ALTC,≤ 0.2
14,SSHN,≤ 0.2
15,FSHR,≤ 0.2
16,GPHG,≤ 0.2
17,ETVS,≤ 0.2
18,VHKV,≤ 0.2
19,QNRC,≤ 0.2
20,IGNG,≤ 0.2
21,YFVT,≤ 0.2
22,QHEF,≤ 0.2
23,KSLS,≤ 0.2
24,GGCG,≤ 0.2
25,DGVN,≤ 0.2

row,Variant,one-hybrid fitness for binding parS DNA
1,TYNH,≤ 0.2
2,RFIK,≤ 0.2
3,AGND,≤ 0.2
4,IGAY,≤ 0.2
5,KSRF,≤ 0.2
6,PVIP,≤ 0.2
7,CTSW,≤ 0.2
8,RNTK,≤ 0.2
9,SGAA,≤ 0.2
10,KTRE,≤ 0.2
11,MTHF,≤ 0.2
12,FCNS,≤ 0.2
13,QTNK,≤ 0.2
14,SPTD,≤ 0.2
15,DYNM,≤ 0.2
16,IKTL,≤ 0.2
17,RYCP,≤ 0.2
18,LRAQ,≤ 0.2
19,SQKK,≤ 0.2
20,TGRG,≤ 0.2
21,KRKG,≤ 0.2
22,QRCY,≤ 0.2
23,LAWY,≤ 0.2
24,YQLC,≤ 0.2
25,MLIN,≤ 0.2

row,Variant,one-hybrid fitness for binding parS DNA
1,RYNE,≤ 0.2
2,PHVY,≤ 0.2
3,EQVT,≤ 0.2
4,TYAY,≤ 0.2
5,IDYY,≤ 0.2
6,NMMR,≤ 0.2
7,RSME,≤ 0.2
8,VVWL,≤ 0.2
9,VMVC,≤ 0.2
10,ATTR,≤ 0.2
11,QLKF,≤ 0.2
12,FTFS,≤ 0.2
13,DVGR,≤ 0.2
14,PLLM,≤ 0.2
15,TLGK,≤ 0.2
16,GRGV,≤ 0.2
17,FSGC,≤ 0.2
18,ISGS,≤ 0.2
19,RCQA,0.593
20,INCD,≤ 0.2
21,SDVD,≤ 0.2
22,YLLI,≤ 0.2
23,VNVD,≤ 0.2
24,PCCF,≤ 0.2
25,IMYV,≤ 0.2

row,Variant,one-hybrid fitness for binding parS DNA
1,QKKH,≤ 0.2
2,HGPK,≤ 0.2
3,PSNV,≤ 0.2
4,WSQD,≤ 0.2
5,QRMQ,≤ 0.2
6,VNNH,≤ 0.2
7,EHMC,≤ 0.2
8,EFHT,≤ 0.2
9,AFAC,≤ 0.2
10,QAAV,≤ 0.2
11,QEQC,≤ 0.2
12,TGVM,≤ 0.2
13,TLCS,≤ 0.2
14,FLNS,≤ 0.2
15,HMSF,≤ 0.2
16,SNIF,≤ 0.2
17,ATIR,≤ 0.2
18,GTLF,≤ 0.2
19,RGFW,≤ 0.2
20,WYCG,≤ 0.2
21,KVCG,≤ 0.2
22,RYKT,0.708
23,TQFL,≤ 0.2
24,KSAA,≤ 0.2
25,YERA,≤ 0.2

row,Variant,one-hybrid fitness for binding parS DNA
1,HFRG,0.245
2,QVAK,≤ 0.2
3,CLLY,≤ 0.2
4,RFLF,≤ 0.2
5,GTTI,≤ 0.2
6,HYWL,≤ 0.2
7,SAHL,≤ 0.2
8,YIHT,≤ 0.2
9,VNNL,≤ 0.2
10,RHTD,≤ 0.2
11,PVYM,≤ 0.2
12,RLER,≤ 0.2
13,MATC,≤ 0.2
14,RYAE,≤ 0.2
15,VLNP,≤ 0.2
16,HQVT,≤ 0.2
17,APAH,≤ 0.2
18,WGDA,≤ 0.2
19,RQGQ,≤ 0.2
20,QVPN,≤ 0.2
21,TSRS,≤ 0.2
22,SAGL,≤ 0.2
23,LVLI,≤ 0.2
24,TDWS,≤ 0.2
25,DVDV,≤ 0.2

row,Variant,one-hybrid fitness for binding parS DNA
1,HLSV,≤ 0.2
2,PLSM,≤ 0.2
3,QVTY,≤ 0.2
4,NSSC,≤ 0.2
5,FHYR,≤ 0.2
6,TSWD,≤ 0.2
7,WMTG,≤ 0.2
8,MMNS,≤ 0.2
9,NIML,≤ 0.2
10,AHGA,≤ 0.2
11,PYWV,≤ 0.2
12,PRQN,≤ 0.2
13,APSN,≤ 0.2
14,QQYL,≤ 0.2
15,INHH,≤ 0.2
16,LMAC,≤ 0.2
17,DVIL,≤ 0.2
18,QHMG,≤ 0.2
19,CGWS,≤ 0.2
20,NEVC,≤ 0.2
21,TEGM,≤ 0.2
22,RKRS,0.747
23,RMRW,0.586
24,PFKI,≤ 0.2
25,SQCW,≤ 0.2

row,Variant,one-hybrid fitness for binding parS DNA
1,AQVG,≤ 0.2
2,NNHH,≤ 0.2
3,QVEW,≤ 0.2
4,SLWK,≤ 0.2
5,PHLA,≤ 0.2
6,VVEN,≤ 0.2
7,QPLH,≤ 0.2
8,PSWT,≤ 0.2
9,AHAN,≤ 0.2
10,HACK,≤ 0.2
11,PFIG,≤ 0.2
12,ALKW,≤ 0.2
13,REMI,≤ 0.2
14,KIFF,≤ 0.2
15,MIEP,≤ 0.2
16,TGMA,≤ 0.2
17,APPS,≤ 0.2
18,RKTC,0.793
19,LEVT,≤ 0.2
20,SLDP,≤ 0.2
21,EHES,≤ 0.2
22,MPPG,≤ 0.2
23,HSSR,≤ 0.2
24,HGQA,≤ 0.2
25,SNAD,≤ 0.2

row,Variant,one-hybrid fitness for binding parS DNA
1,NAPD,≤ 0.2
2,TEFD,≤ 0.2
3,DPPD,≤ 0.2
4,INRF,≤ 0.2
5,YDQL,0.202
6,QAGD,≤ 0.2
7,LLMP,≤ 0.2
8,WAIM,≤ 0.2
9,RQHH,0.292
10,ALVT,≤ 0.2
11,MGPF,≤ 0.2
12,PIST,≤ 0.2
13,FMKT,≤ 0.2
14,ETTS,≤ 0.2
15,PQGR,≤ 0.2
16,SSQL,≤ 0.2
17,GTDS,≤ 0.2
18,SAHG,≤ 0.2
19,VILN,≤ 0.2
20,WQKY,≤ 0.2
